From the supplement of paper PMC11417369
This is one part of the list.

These sequences were tested on PfAP2-HC AP2 domain (GST-tagged) (assay: gcPBM binding intensity (ln(normalized median fluorescence intensity)); higher = stronger DNA binding).
Outline: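 For binding intensity, the highest Masliner-normalised natural-log median intensity across replicate spots of either probe orientation was taken. Protein bound to the array was stained with Alexa488 anti-GST antibody and scanned at 488 nm. The protein, GST-tagged P. falciparum DNA-binding domains from E. coli at about 25 μg on average, had been applied for 1 h to an Agilent 4 × 180k array of primer-extended double-stranded 36-bp intergenic genomic probes and negative controls.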

Sequence | gcPBM binding intensity (ln)
ATCACAAAATGGAATGTTCTATGATATATATGTATA [XGTACX_negctrl_site460] | 9.54
TGTAAATATTTATTCACACATAATCAATTAGAAAAA [CACACA_site5944] | 9.58
GATGATTATATATATACGCACACTTTTTTTTTTTTT [CACACA_site2652] | 9.94
TATAAATACAGATACACACACACACCGATATATATA [CACACA_site5271] | 10.4
AATATATAAATCTATTGTACATAAAGAGGATAATAA [XGTACX_site1022] | 9.75
ATATATATATATATATGTACATATTTATTTATTTAT [XGTACX_site5161] | 9.65
AGCACAGACTAATAAACACACACATATATATATATA [CACACA_site8021] | 10.5
CTCATTCTTTTTTGATGTACTTTTTTTTTTTAAGTT [XGTACX_site2875] | 9.53
TTTTATTAATATTATTTATCTTCTCAAAAGATATAT [XGTACX_negctrl_site202] | 9.48
TATCTTATATTTACACGTACGTAGAATTTATAAGTT [XGTACX_site3460] | 9.55
CACACGTATAAATATACACACTAAAATACACGCACA [CACACA_site7876] | 9.95
AAAAGAGAAACATTTACACACAAATATAGATATATG [CACACA_site1027] | 9.86
TTCAATTAAAAAATATGTACGCATAAATTGATATAT [XGTACX_site4289] | 9.55
TTGTATAATTTAACAAGTACAAAATAAATTTGTATA [XGTACX_site5505] | 9.65
TTTTATGGAAAGTGTTGTACATATTTTTGTATATGT [XGTACX_site7356] | 9.77
ATAGTATACGGACACACACACACACCGATATATATA [CACACA_site5032] | 11.2
TATAACAGGAATTATATATATATATATATATATTAT [CACACA_negctrl_site911] | 9.52
CTTTTTTTAGTTAGGTGTACAATTTGTTATTATTAG [XGTACX_site1507] | 9.7
TTTTTTTTTTTTTTTTGTACATATTTCTTATAAGTG [XGTACX_site6459] | 9.19
TTTAATATGTATTTTTTTTTTTTTTTTTTTTTTTTT [XGTACX_negctrl_site440] | 9.24
TTTTATATCTAGTTTATATTTCTTAAATAAATAAAT [GTGCAC_negctrl_site245] | 9.28
AACATATAAATGATATGTACACACATTTATATATAT [XGTACX_site7364] | 9.85
CAAATTAAATATTATGCATGTACCAAACATCCTACC [TGCATGCA_site35] | 9.66

Sequence | gcPBM binding intensity (ln)
TAATACAAAAAGAAAAGTACATGTTAATTATTATTT [XGTACX_site2196] | 9.54
GGAAGAATATATAGGACACACATACAATAATAAATA [CACACA_site6124] | 10
TTTTTTTTTTTTTTTTTGCAATATATTTTAAAAAAG [CACACA_negctrl_site25] | 8.69
AACTTCTTTTTTATAACACACAAAATATAAATACAA [CACACA_site4313] | 9.58
TTTTTTTTTTTTTTCTGTACTTAAAAAGGGGGAGAA [XGTACX_site3799] | 9.55
CAAACATGTTCAAATTGTACAATAGAAAATATATAT [XGTACX_site1557] | 9.69
TTGAAGTTTGATTGTAGTACGAATTGGTAGTTTTTT [XGTACX_site6854] | 9.67
CAAATACATGGACACACACACATATACAGATATATA [CACACA_site5854] | 10.9
TTCTTTTAATTACGAGTGCATACCATATGACATTAT [GTGCAC_site9819] | 9.74
AGAAAAGAGAGAAAAACATGCACATGATATTATAAA [TGCATGCA_site120] | 9.68
GTGAATATTAAAAAATGTACACAATTATATGTATAT [XGTACX_site4834] | 9.66
ATAAACATCTAGTGCTGTACACAATTTGATTTTTTT [XGTACX_site3110] | 9.67
CCCTTAAAATATAAATGTACAAAATTATTTGTATGT [XGTACX_site6164] | 9.56
GATTATATATACAAAAGTACATTATAAAAATTTCAT [XGTACX_site4223] | 9.53
TGAGTATATATAAATACACACCAAATGTTAATATAT [CACACA_site5022] | 9.69
AGGTTAATCGAAATTGCATGTGACGAAAAATCAAAA [TGCATGCA_site666] | 9.53
TATTTATAACATTGTACACACAAAGAAATAATATTA [CACACA_site7422] | 9.82
ACGTATGTATATTACACACATACATATTATTCACTA [CACACA_site204] | 9.9
CATATATAACATATAACACACATACTTAGTATTACA [CACACA_site5674] | 9.81
ATGATAAACATGGATACACACATATATATTACATAT [CACACA_site1576] | 10.1
ATAATATTTTATATAGTGCATTTGCTCATTATATAT [GTGCAC_site9528] | 9.62
ACATATATATACTATCGATTAATAAATTTGTTTTTT [CACACA_negctrl_site881] | 9.68
